# The supplement of paper PMC12217912
# Some of the results follow. Sequences were assembled here from the parent chain. Values near 0.05 are background.
# B1: TEV protease; numbered along this chain (parent)
# chain: MGESLFKGPRDYNPISSSICHLTNESDGHTTSLYGIGFGPFIITNKHLFRRNNGTLVVQSLHGVFKVKDTTTLQQHLVDGRDMIIIRMPKDFPPFPQKLKFREPQREERICLVTTNFQTKSMSSMVSDTSCTFPSGDGIFWKHWIQTKDGQCGSPLVSTRDGFIVGIHSASNFTNTNNYFTSVPKNFMELLTNQEAQQWVSGWRLNADSVLWGGHKVFMVKPEEPFQPVKEATQL
# Variants of: B1
# Experiment: raw area under fraction-flipped curve 0-4 h after induction (AUC4h, not background-subtracted), DNA-recorder readout of cleavage of the substrate (dimensionless); higher = more cleavage of the substrate by the protease variant
# Conditions: temperature: 34 °C; time window: 0-4 h after rhamnose induction
# Protocol: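 In vivo DNA recorder in E. coli TOP10(DE3) ΔrhaA at 34 °C. Each TEVp single-site mutant (parent TEVp 0) is paired with a single-site variant of the 7-mer TEVs (canonical ENLYFQ|S). The substrate sits between flexible linkers in a Bxb1-sfGFP-TEVs-SsrA fusion, so cleavage stabilises Bxb1 and speeds flipping of a recombination array, read by NGS. The value is the raw area under the fraction-flipped curve over 0-4 h after rhamnose induction (AUC4h), with ≥20 reads per time point. It is not background-subtracted; inactive controls average about 0.047.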
# 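Also: Bxb1 expression induced with 0.2% (w/v) L-rhamnose at OD600 near 0.5, cultures sampled hourly, flipped fraction per protease–substrate barcode pair counted by paired-end Illumina sequencing.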
Variant,area with substrate ENLYFAS,area with substrate ENLYFCS,area with substrate ENLYFDS,area with substrate ENLYFES,area with substrate ENLYFFS,area with substrate ENLYFGS,area with substrate ENLYFHS,area with substrate ENLYFIS,area with substrate ENLYFKS,area with substrate ENLYFMS,area with substrate ENLYFNS,area with substrate ENLYFPS,area with substrate ENLYFRS,area with substrate ENLYFSS,area with substrate ENLYFTS,area with substrate ENLYFVS,area with substrate ENLYFWS,area with substrate ENLYFYS,area with substrate ENLYFLS
MGESLFKGPRDYNPISSSICHLTNESDGHTTSLYGIGFGPFIITNKHLFRRNNGTLVVQSLHGVFKVKDTTTLQQHLVDGRDMIIIRMPKDFPPFPQKLKFREPQREERICLVTTNFQTKSMSSMVSDTSCTFPSGDGIFWKHWIQTKDGQCGSPLVSTRDGFIVGIHSASNFTNTNNYFTSVPKNFMELLTNQEAQQWVSGWRLNADSVLWGGHKVFWVKPEEPFQPVKEATQL [M219W],0.0764,0.0792,0.0636,0.0672,0.0665,0.0616,0.0518,0.0621,0.0712,0.0698,0.0633,0.0597,0.0546,0.0694,0.044,0.0589,0.0656,–,–
MGESLFKGPRDYNPISSSICHLTNESDGHTTSLYGIGFGPFIITNKHLFRRNNGTLVVQSLHGVFKVKDTTTLQQHLVDGRDMIIIRMPKDFPPFPQKLKFREPQREERICLVTTNFQTKSMSSMVSDTSCTFPSGDGIFWKHWIQTKDGQCGSPLVSTRDGFIVGIHSASNFTNTNNYFTSVPKNFMELLTNQEAQQWVSGWRLNADSVLWGGHKVFMEKPEEPFQPVKEATQL [V220E],0.0631,0.0482,–,0.0537,0.0571,0.064,0.0615,0.0615,0.0691,0.109,0.0817,–,0.0422,0.0595,–,0.0614,0.071,–,–
MGESLFKGPRDYNPISSSICHLTNESDGHTTSLYGIGFGPFIITNKHLFRRNNGTLVVQSLHGVFKVKDTTTLQQHLVDGRDMIIIRMPKDFPPFPQKLKFREPQREERICLVTTNFQTKSMSSMVSDTSCTFPSGDGIFWKHWIQTKDGQCGSPLVSTRDGFIVGIHSASNFTNTNNYFTSVPKNFMELLTNQEAQQWVSGWRLNADSVLWGGHKVFMGKPEEPFQPVKEATQL [V220G],0.0608,0.0646,–,0.0841,0.0665,0.0654,–,0.058,0.058,0.0655,0.0678,0.0567,0.0633,0.0505,0.0524,0.105,–,0.0689,–
MGESLFKGPRDYNPISSSICHLTNESDGHTTSLYGIGFGPFIITNKHLFRRNNGTLVVQSLHGVFKVKDTTTLQQHLVDGRDMIIIRMPKDFPPFPQKLKFREPQREERICLVTTNFQTKSMSSMVSDTSCTFPSGDGIFWKHWIQTKDGQCGSPLVSTRDGFIVGIHSASNFTNTNNYFTSVPKNFMELLTNQEAQQWVSGWMLNADSVLWGGHKVFMVKPEEPFQPVKEATQL [R204M],0.0557,0.0552,–,0.0734,0.0716,0.0583,0.0643,0.0567,0.048,0.0755,0.0719,0.0563,0.0604,0.0522,0.0699,0.0344,0.0775,–,0.0651
MGESLFKGPRDYNPISSSICHLTNESDGHTTSLYGIGFGPFIITNKHLFRRNNGTLVVQSLHGVFKVKDTTTLQQHLVDGRDMIIIRMPKDFPPFPQKLKFREPQREERICLVTTNFQTKSMSSMVSDTSCTFPSGDGIFWKHWIQTKDGQCGSPLVSTRDGFIVGIHSASNFTNTNNYFTSVPKNFMELLTNQEAQQWVSGWVLNADSVLWGGHKVFMVKPEEPFQPVKEATQL [R204V],0.0524,0.0608,–,0.0602,0.0646,0.0684,0.0642,0.0596,0.0881,0.0614,0.0662,0.0566,–,0.0644,0.0507,0.0441,0.0548,0.0544,0.0585
MGESLFKGPRDYNPISSSICHLTNESDGHTTSLYGIGFGPFIITNKHLFRRNNGTLVVQSLHGVFKVKDTTTLQQHLVDGRDMIIIRMPKDFPPFPQKLKFREPQREERICLVTTNFQTKSMSSMVSDTSCTFPSGDGIFWKHWIQTKDGQCGSPLVSTRDGFIVGIHSASNFTNTNNYFTSVPKNFMELLTNQEAQQWVSGWRLNTDSVLWGGHKVFMVKPEEPFQPVKEATQL [A207T],0.0619,0.0558,–,0.0573,0.0637,0.0643,0.002,0.0632,0.0656,0.0698,0.0675,0.0651,0.0613,0.06,–,–,0.0568,0.0627,–
MGESLFKGPRDYNPISSSICHLTNESDGHTTSLYGIGFGPFIITNKHLFRRNNGTLVVQSLHGVFKVKDTTTLQQHLVDGRDMIIIRMPKDFPPFPQKLKFREPQREERICLVTTNFQTKSMSSMVSDTSCTFPSGDGIFWKHWIQTKDGQCGSPLVSTRDGFIVGIHSASNFTNTNNYFTSVPKNFMELLTNQEAQQWVSGWRLNADSVLWGGHKVFMVKPNEPFQPVKEATQL [E223N],0.0598,0.0621,0.0115,0.0688,0.0772,–,–,0.0561,0.0525,0.0619,0.0391,0.0596,0.0472,0.0659,–,–,0.0471,–,0.0669
MGESLFKGPRDYNPISSSICHLTNESDGHTTSLYGIGFGPFIITNKHLFRRNNGTLVVQSLHGVFKVKDTTTLQQHLVDGRDMIIIRMPKDFPPFPQKLKFREPQREERICLVTTNFQTKSMSSMVSDTSCTFPSGDGIFWKHWIQTKDGQCGSPLVSTRDGFIVGIHSASNFTNTNNYFTSVPKNFMELLTNQEAQQWVSGWRLNADSVLWGGHKVFMVKPYEPFQPVKEATQL [E223Y],0.0637,0.0556,0.0156,0.0672,0.0673,–,0.0578,0.0581,0.0646,0.0476,0.0728,0.0534,–,0.0479,0.0606,–,0.063,–,–
MGESLFKGPRDYNPISSSICHLTNESDGHTTSLYGIGFGPFIITNKHLFRRNNGTLVVQSLHGVFKVKDTTTLQQHLVDGRDMIIIRMPKDFPPFPQKLKFREPQREERICLVTTNFQTKSMSSMVSDTSCTFPSGDGIFWKHWIQTKDGQCGSPLVSTRDGFIVGIHSASNFTNTNNYFTSVPKNFMELLTNQEAQQWVSRWRLNADSVLWGGHKVFMVKPEEPFQPVKEATQL [G202R],0.0676,–,–,0.0562,0.0594,0.0646,–,0.0574,0.0649,0.0668,0.0792,0.0446,0.063,–,0.0611,0.0551,–,–,–
